This is one part of the list. The energies were worked out here from pooled read counts, against the library average; single values are noisy.

In the assay the target is T1, Pho4 (S. cerevisiae) (UniProt P07270).
T1 sequence: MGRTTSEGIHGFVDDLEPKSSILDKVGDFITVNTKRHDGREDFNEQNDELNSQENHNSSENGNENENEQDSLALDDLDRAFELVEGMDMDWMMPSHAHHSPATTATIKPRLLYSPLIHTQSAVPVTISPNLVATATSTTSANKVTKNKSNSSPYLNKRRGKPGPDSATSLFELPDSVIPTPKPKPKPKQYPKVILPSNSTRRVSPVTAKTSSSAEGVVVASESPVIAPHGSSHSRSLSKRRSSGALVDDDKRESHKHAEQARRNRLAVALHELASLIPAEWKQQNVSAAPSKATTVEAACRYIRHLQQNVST
In words: relative binding free energy (BET-seq); higher = weaker binding. Conditions: reference: library average.
GTCGTCACGTGTTGCT: the “relative binding free energy” value came to 0 kcal/mol.

For CGTGGCACGTGTGGTT, the “relative binding free energy” value is 0.01 kcal/mol.

Turning to TTTTACACGTGATGAT, the “relative binding free energy” value turned out to be 0.11 kcal/mol.

TATGTCACGTGTCCGT: the “relative binding free energy” value was 0.01 kcal/mol.

As for CTTTTCACGTGGGATT, the “relative binding free energy” value came to 0.12 kcal/mol.

TTCGTCACGTGTGGTT: the “relative binding free energy” value was 0.11 kcal/mol.

Turning to TAGGGCACGTGGGGGT, the “relative binding free energy” value was -0.28 kcal/mol.

With CTAGGCACGTGGGCCG, the “relative binding free energy” value is -0.16 kcal/mol.

Turning to ATGTCCACGTGTTGTG, the “relative binding free energy” value was -0.08 kcal/mol.

Consider ACGATCACGTGGTGTA, for which the “relative binding free energy” value worked out at 0.01 kcal/mol.

With AGCGACACGTGTAGGT, the “relative binding free energy” value was 0.1 kcal/mol.

As for GGCGTCACGTGTTCGG, the “relative binding free energy” value stood at 0.18 kcal/mol.

Regarding TTTAACACGTGACTGG, the “relative binding free energy” value worked out at 0.03 kcal/mol.

As for ATTTTCACGTGGTGGT, the “relative binding free energy” value was found to be 0.33 kcal/mol.

Regarding GGGCGCACGTGGTGTG, the “relative binding free energy” value was -0.23 kcal/mol.

For TTACGCACGTGTGTGA, the “relative binding free energy” value is -0.17 kcal/mol.

Turning to CGGTACACGTGTTTAG, the “relative binding free energy” value turned out to be 0.05 kcal/mol.

For TTCAGCACGTGGGCTG, the “relative binding free energy” value was -0.25 kcal/mol.

Turning to TACTTCACGTGGAATG, the “relative binding free energy” value turned out to be 0.35 kcal/mol.

With ATGAACACGTGTGATG, the “relative binding free energy” value was found to be 0.09 kcal/mol.

In the case of TGGGTCACGTGCCGTT, the “relative binding free energy” value came to 0.07 kcal/mol.

Take GGGTCCACGTGGCGTG: the “relative binding free energy” value is -0.14 kcal/mol.

Turning to ACGGACACGTGGGTTT, the “relative binding free energy” value is 0.04 kcal/mol.

TGCATCACGTGATGGT: the “relative binding free energy” value worked out at 0.31 kcal/mol.

As to TCGGGCACGTGGGTTT, the “relative binding free energy” value is -0.11 kcal/mol.

Consider GGAGACACGTGTTGTT, for which the “relative binding free energy” value is 0.02 kcal/mol.

In the case of AGCATCACGTGGGGCT, the “relative binding free energy” value was determined as 0.03 kcal/mol.

Turning to GCTAGCACGTGAAGGT, the “relative binding free energy” value is 0.24 kcal/mol.

Turning to TTTACCACGTGTGGGA, the “relative binding free energy” value was -0.03 kcal/mol.

For TGGTGCACGTGATGGT, the “relative binding free energy” value came to 0.13 kcal/mol.

Take CTTGTCACGTGTAAGG: the “relative binding free energy” value was 0.16 kcal/mol.

In the case of ATTAGCACGTGAGAAT, the “relative binding free energy” value came out at 0.24 kcal/mol.

With TTGGTCACGTGGATTA, the “relative binding free energy” value was determined as 0.19 kcal/mol.

Turning to GTGGTCACGTGAGTCA, the “relative binding free energy” value came out at 0.47 kcal/mol.

Regarding TGTTGCACGTGAAAAG, the “relative binding free energy” value was 0.22 kcal/mol.

GGGATCACGTGAATGA: the “relative binding free energy” value came out at 0.53 kcal/mol.

For the sequence CGGTGCACGTGATTTT, the “relative binding free energy” value was found to be 0.24 kcal/mol.

For GGGAACACGTGTGCGG, the “relative binding free energy” value was -0.02 kcal/mol.

As to ATTTGCACGTGTTTTG, the “relative binding free energy” value came out at 0.01 kcal/mol.

For the sequence GGAGTCACGTGCAGTA, the “relative binding free energy” value was 0.13 kcal/mol.

On to AGTTTCACGTGGTTGG, for which the “relative binding free energy” value is 0.28 kcal/mol.

ATCGACACGTGGGAGT: the “relative binding free energy” value turned out to be 0.02 kcal/mol.

Take GGGATCACGTGCAATG: the “relative binding free energy” value is 0.21 kcal/mol.

As to GAGGGCACGTGCCGTG, the “relative binding free energy” value is -0.06 kcal/mol.

On to GAGGACACGTGTATTG, for which the “relative binding free energy” value is -0.03 kcal/mol.

Consider GTTATCACGTGGGGCA, for which the “relative binding free energy” value was -0.11 kcal/mol.

As to GCCTTCACGTGGGGTA, the “relative binding free energy” value was 0.26 kcal/mol.

Regarding GGTGCCACGTGAAGTG, the “relative binding free energy” value was found to be 0.13 kcal/mol.

For TGAGGCACGTGTTGAT, the “relative binding free energy” value is -0.08 kcal/mol.

Consider CTGGACACGTGAGGTA, for which the “relative binding free energy” value stood at 0.22 kcal/mol.

For the sequence TTGCACACGTGATGTA, the “relative binding free energy” value was 0.17 kcal/mol.

With TGCTGCACGTGATTGG, the “relative binding free energy” value worked out at 0.24 kcal/mol.

As to TCGTGCACGTGAATGG, the “relative binding free energy” value is 0.21 kcal/mol.

CGGTGCACGTGCTGTG: the “relative binding free energy” value was -0.06 kcal/mol.

For TGGGCCACGTGGGACG, the “relative binding free energy” value was -0.09 kcal/mol.

Turning to TGACGCACGTGTTGAG, the “relative binding free energy” value is -0.2 kcal/mol.

As to TGTGACACGTGAGGCG, the “relative binding free energy” value came out at 0.13 kcal/mol.

On to ATTTCCACGTGTTAAT, for which the “relative binding free energy” value turned out to be 0.07 kcal/mol.

For ATGTTCACGTGTTGCG, the “relative binding free energy” value amounted to 0.27 kcal/mol.

Turning to TGGTTCACGTGGTTGG, the “relative binding free energy” value worked out at 0.35 kcal/mol.

With AGAGACACGTGGGAAT, the “relative binding free energy” value is 0.06 kcal/mol.

ATTATCACGTGTTAAT: the “relative binding free energy” value amounted to 0.13 kcal/mol.

In the case of TGATTCACGTGATGCT, the “relative binding free energy” value was determined as 0.34 kcal/mol.

Regarding TGTTTCACGTGGAAAC, the “relative binding free energy” value was 0.48 kcal/mol.

Regarding TTGTACACGTGGTGCG, the “relative binding free energy” value was -0.1 kcal/mol.

Turning to TGACGCACGTGATGTG, the “relative binding free energy” value was -0.06 kcal/mol.

For the sequence TTATTCACGTGTCGGG, the “relative binding free energy” value was found to be 0.35 kcal/mol.

For the sequence GGTGTCACGTGACGTA, the “relative binding free energy” value is 0.15 kcal/mol.

Regarding TGTTTCACGTGTAAAG, the “relative binding free energy” value turned out to be 0.37 kcal/mol.

For GTATTCACGTGTATAT, the “relative binding free energy” value is 0.18 kcal/mol.

With ATTGTCACGTGGGAAC, the “relative binding free energy” value was 0.2 kcal/mol.

Take ATGGGCACGTGAGAGA: the “relative binding free energy” value stood at 0.16 kcal/mol.

For the sequence AAATTCACGTGGTTAA, the “relative binding free energy” value came to 0.17 kcal/mol.

Regarding GGAAGCACGTGAGCGG, the “relative binding free energy” value was found to be 0.12 kcal/mol.

For GGGACCACGTGGATGT, the “relative binding free energy” value stood at 0.05 kcal/mol.

With ATTAGCACGTGTGGAT, the “relative binding free energy” value is 0.11 kcal/mol.

Turning to GGGGACACGTGCTGGA, the “relative binding free energy” value is 0.03 kcal/mol.

On to GGTGTCACGTGAGGAA, for which the “relative binding free energy” value worked out at 0.24 kcal/mol.

Turning to ATGACCACGTGGTGGG, the “relative binding free energy” value is -0.21 kcal/mol.

Take ACTAGCACGTGAGTGG: the “relative binding free energy” value worked out at 0.1 kcal/mol.

In the case of AGTTGCACGTGGGATT, the “relative binding free energy” value is -0.02 kcal/mol.

As to GAATGCACGTGTAGAG, the “relative binding free energy” value is 0.21 kcal/mol.

For GGAGCCACGTGTTGTT, the “relative binding free energy” value is -0.09 kcal/mol.

Take AGAAGCACGTGAGGTA: the “relative binding free energy” value stood at 0.13 kcal/mol.

With TGGATCACGTGTATGT, the “relative binding free energy” value turned out to be 0.22 kcal/mol.

Turning to TTGATCACGTGAGAAT, the “relative binding free energy” value is 0.33 kcal/mol.

With CTGAGCACGTGTCGGG, the “relative binding free energy” value was -0.18 kcal/mol.

On to AATGACACGTGGGGGT, for which the “relative binding free energy” value was -0.11 kcal/mol.

As to TGATTCACGTGGAATG, the “relative binding free energy” value came out at 0.38 kcal/mol.

For TTACTCACGTGATGTT, the “relative binding free energy” value was 0.42 kcal/mol.

As for TGCTGCACGTGGTTAG, the “relative binding free energy” value was -0.18 kcal/mol.

On to GGCACCACGTGTGTGG, for which the “relative binding free energy” value is -0.03 kcal/mol.

GGGTGCACGTGTTTAG: the “relative binding free energy” value was 0 kcal/mol.

For CGTTTCACGTGGGATT, the “relative binding free energy” value stood at 0.25 kcal/mol.

As for TTTGCCACGTGGAAGG, the “relative binding free energy” value is -0.16 kcal/mol.

For GTCATCACGTGTAGGC, the “relative binding free energy” value was 0.24 kcal/mol.

For the sequence TTGTGCACGTGCTGAG, the “relative binding free energy” value was -0.03 kcal/mol.

As to TGTGACACGTGTGCGG, the “relative binding free energy” value worked out at 0.03 kcal/mol.

ATGTTCACGTGGTCTA: the “relative binding free energy” value worked out at 0.12 kcal/mol.

For the sequence GGCGACACGTGATGTG, the “relative binding free energy” value came to 0.26 kcal/mol.

With TCGAGCACGTGTGGAT, the “relative binding free energy” value worked out at 0.02 kcal/mol.

Take TGTCTCACGTGCGTAT: the “relative binding free energy” value came out at 0.1 kcal/mol.

On to TTGGGCACGTGCTCAG, for which the “relative binding free energy” value was -0.21 kcal/mol.

For the sequence GCGTTCACGTGTTATG, the “relative binding free energy” value was found to be 0.22 kcal/mol.

For CGTTGCACGTGGAGTA, the “relative binding free energy” value is -0.03 kcal/mol.

In the case of GTGAACACGTGTTGGT, the “relative binding free energy” value was determined as 0.04 kcal/mol.

With GGGAGCACGTGTGTTA, the “relative binding free energy” value was -0.1 kcal/mol.

In the case of TTCGTCACGTGATAAG, the “relative binding free energy” value worked out at 0.24 kcal/mol.

As to AGCGGCACGTGTTTGA, the “relative binding free energy” value is -0.1 kcal/mol.

Regarding TTGGTCACGTGGGATA, the “relative binding free energy” value stood at 0.08 kcal/mol.

In the case of TTTTGCACGTGAGGTG, the “relative binding free energy” value is 0.32 kcal/mol.

On to AAGGGCACGTGTGTCG, for which the “relative binding free energy” value is -0.25 kcal/mol.

As for ATTTTCACGTGGGGTG, the “relative binding free energy” value came to 0.17 kcal/mol.

TGTTACACGTGATAAA: the “relative binding free energy” value amounted to 0.2 kcal/mol.

Take GGGTACACGTGGAAAG: the “relative binding free energy” value is 0.2 kcal/mol.

(Values after the BET-seq Pho4 binding data (Le et al. 2018).)
